{"source": "patent US9845340B2", "about": "“Peptides that specifically bind HGF receptor (cMet) and uses thereof” (Dyax Corp., priority 2003, dated 2017)", "key": {"cMet-Fc fusion protein": {"target": "cMet-Fc fusion protein (Homo sapiens, UniProt P08581)", "sequence (P08581 25-307 limits assumed)": "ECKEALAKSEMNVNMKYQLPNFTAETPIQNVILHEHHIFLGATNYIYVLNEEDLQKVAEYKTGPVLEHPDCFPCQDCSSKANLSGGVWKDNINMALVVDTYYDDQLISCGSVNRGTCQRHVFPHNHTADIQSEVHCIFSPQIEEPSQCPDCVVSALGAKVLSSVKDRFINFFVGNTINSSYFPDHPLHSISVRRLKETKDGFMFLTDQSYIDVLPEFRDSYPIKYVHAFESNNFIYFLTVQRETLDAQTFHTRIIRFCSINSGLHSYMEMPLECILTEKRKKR", "sequence (P08581 with tags, fused parts or gaps limits assumed)": "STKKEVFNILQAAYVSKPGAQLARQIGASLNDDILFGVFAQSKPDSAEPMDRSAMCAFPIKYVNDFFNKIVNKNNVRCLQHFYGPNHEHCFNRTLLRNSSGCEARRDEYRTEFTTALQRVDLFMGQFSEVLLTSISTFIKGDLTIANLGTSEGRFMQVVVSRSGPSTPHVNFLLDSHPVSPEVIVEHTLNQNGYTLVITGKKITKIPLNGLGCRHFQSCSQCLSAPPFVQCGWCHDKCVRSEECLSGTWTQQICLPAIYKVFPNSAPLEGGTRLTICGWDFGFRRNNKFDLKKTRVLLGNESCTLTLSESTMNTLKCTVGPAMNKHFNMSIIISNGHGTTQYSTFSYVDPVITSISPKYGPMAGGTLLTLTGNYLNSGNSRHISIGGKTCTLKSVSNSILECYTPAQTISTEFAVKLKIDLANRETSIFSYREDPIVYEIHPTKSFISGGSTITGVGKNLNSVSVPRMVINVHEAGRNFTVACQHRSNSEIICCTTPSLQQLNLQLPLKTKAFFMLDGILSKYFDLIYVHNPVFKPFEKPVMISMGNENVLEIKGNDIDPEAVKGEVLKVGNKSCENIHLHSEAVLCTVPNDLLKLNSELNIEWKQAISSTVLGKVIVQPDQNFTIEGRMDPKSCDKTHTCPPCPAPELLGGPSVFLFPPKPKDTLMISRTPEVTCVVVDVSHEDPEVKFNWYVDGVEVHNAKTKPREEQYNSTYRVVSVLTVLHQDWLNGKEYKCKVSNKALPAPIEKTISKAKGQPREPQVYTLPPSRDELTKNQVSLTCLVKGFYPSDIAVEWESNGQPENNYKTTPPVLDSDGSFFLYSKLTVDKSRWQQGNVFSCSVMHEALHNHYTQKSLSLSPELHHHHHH", "experiment": "Fluorescence anisotropy / polarization direct binding, human cMet", "conditions": "fluorescein-labeled peptide 20 nM"}, "[1]": {"target": "T1, cMet-Fc fusion protein (or similar target) (Mus musculus, UniProt P16056)", "T1 construct": "Fc", "T1 sequence (P16056 25-306 limits assumed)": "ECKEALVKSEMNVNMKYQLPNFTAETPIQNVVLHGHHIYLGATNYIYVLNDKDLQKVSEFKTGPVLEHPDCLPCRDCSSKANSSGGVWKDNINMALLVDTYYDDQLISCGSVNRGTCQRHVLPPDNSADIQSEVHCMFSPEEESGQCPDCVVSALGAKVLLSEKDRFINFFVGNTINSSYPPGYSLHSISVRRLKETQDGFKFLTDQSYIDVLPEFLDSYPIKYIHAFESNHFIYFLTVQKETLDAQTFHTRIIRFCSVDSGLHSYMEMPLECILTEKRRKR", "T1 sequence (P16056 307-929 limits assumed)": "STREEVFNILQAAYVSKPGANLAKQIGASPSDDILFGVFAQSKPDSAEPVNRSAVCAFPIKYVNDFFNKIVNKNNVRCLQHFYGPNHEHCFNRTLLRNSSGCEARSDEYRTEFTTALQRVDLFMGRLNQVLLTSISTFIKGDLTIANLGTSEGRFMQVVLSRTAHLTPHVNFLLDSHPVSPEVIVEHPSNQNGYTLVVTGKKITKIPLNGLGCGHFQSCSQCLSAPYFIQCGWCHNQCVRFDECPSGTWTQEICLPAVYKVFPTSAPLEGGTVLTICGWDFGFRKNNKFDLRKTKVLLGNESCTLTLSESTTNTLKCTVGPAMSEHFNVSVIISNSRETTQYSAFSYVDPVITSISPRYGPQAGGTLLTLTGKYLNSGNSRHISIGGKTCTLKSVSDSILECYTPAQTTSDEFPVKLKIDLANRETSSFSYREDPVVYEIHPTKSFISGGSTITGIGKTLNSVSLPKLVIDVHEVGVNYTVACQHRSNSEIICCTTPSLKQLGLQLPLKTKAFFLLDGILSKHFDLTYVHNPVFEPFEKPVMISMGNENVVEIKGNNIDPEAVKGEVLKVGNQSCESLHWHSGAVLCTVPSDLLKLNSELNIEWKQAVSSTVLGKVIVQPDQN", "experiment": "Fluorescence anisotropy / polarization direct binding, mouse cMet", "conditions": "fluorescein-labeled peptide", "experimental": "Fluorescence anisotropy measurements were performed in 384-well microplates in a volume of 10 μL in binding buffer (PBS, 0.01% Tween-20, pH 7.5) using a Tecan Polarion fluorescence polarization plate reader ([…]). The concentration of fluorescein-labeled peptide was held constant (20 nM) and the concentration of cMet-Fc fusion protein (or similar target) was varied. Binding mixtures were equilibrated for 10 minutes in the microplate at 30 C before measurement. The observed change in anisotropy was fit to the equation below via nonlinear regression to obtain the apparent KD. This equation (1) assumes that the synthetic peptide and cMet form a reversible complex in solution with 1:1 stoichiometry.\n[formula] where robs is the observed anisotropy, rfree is the anisotropy of the free peptide, rbound is the anisotropy of the bound peptide, KD is the apparent dissociation constant, cMet is the total cMet concentration, and P is the total fluorescein-labeled peptide concentration. KD was calculated in a direct binding assay (KD,B) and therefore these values represent cMet binding to the fluorescein labeled peptide."}}, "note": "At least one structure is not confirmed: it was looked up by name or label, or the drawing left a doubt.", "data": [{"compound": "CC[C@H](C)[C@H](NC(=O)[C@H](Cc1c[nH]c2ccccc12)NC(=O)[C@H](CO)NC(=O)CNC(C)=O)C(=O)N[C@H](C(=O)N[C@H]1CSSC[C@@H](C(=O)NCC(=O)N[C@@H](CO)C(=O)N[C@@H](CO)C(=O)N[C@@H](C)C(=O)N2CCC[C@H]2C(=O)NCC(=O)NCC(=O)NCC(=O)N[C@@H](CCCCNC(=O)c2ccc3c(c2)C(=O)OC32c3ccc(O)cc3Oc3cc(O)ccc32)C(N)=O)NC(=O)[C@H](CC(N)=O)NC(=O)[C@H](CC(=O)O)NC(=O)[C@H](Cc2c[nH]c3ccccc23)NC(=O)[C@H](Cc2c[nH]c3ccccc23)NC1=O)[C@@H](C)CC", "note": "[SEQ ID NO: 001]", "values": [{"measurement": "Kd", "setting": "cMet-Fc fusion protein", "result": 200, "unit": "nM"}, {"measurement": "Kd", "setting": "[1]", "result": 3500, "unit": "nM"}]}, {"compound": "CC(=O)N[C@@H](C)C(=O)NCC(=O)N[C@@H](CO)C(=O)N[C@@H](Cc1c[nH]c2ccccc12)C(=O)N[C@@H](Cc1c[nH]cn1)C(=O)N[C@H]1CSSC[C@@H](C(=O)N[C@@H](Cc2c[nH]c3ccccc23)C(=O)N[C@@H](CCC(=O)O)C(=O)N[C@@H](Cc2ccccc2)C(=O)NCC(=O)N[C@H](C(=O)NCC(=O)NCC(=O)NCC(=O)N[C@@H](CCCCNC(=O)c2ccc3c(c2)C(=O)OC32c3ccc(O)cc3Oc3cc(O)ccc32)C(N)=O)[C@@H](C)O)NC(=O)[C@H](CCC(=O)O)NC(=O)[C@H](Cc2ccccc2)NC(=O)[C@H](CO)NC(=O)[C@@H]2CCCN2C(=O)[C@@H]2CCCN2C(=O)CNC(=O)[C@H](C)NC1=O", "note": "[SEQ ID NO: 055]", "values": [{"measurement": "Kd", "setting": "cMet-Fc fusion protein", "result": 900, "unit": "nM"}, {"measurement": "Kd", "setting": "[1]", "result": 1100, "unit": "nM"}]}, {"compound": "CC[C@H](C)[C@H](NC(=O)CNC(=O)[C@H](Cc1ccccc1)NC(=O)[C@H](Cc1c[nH]c2ccccc12)NC(=O)[C@H](CO)NC(=O)CNC(=O)[C@H](Cc1c[nH]c2ccccc12)NC(=O)[C@H](Cc1ccccc1)NC(=O)CNC(=O)[C@H](CC(=O)O)NC(=O)[C@@H](NC(=O)[C@H](Cc1ccccc1)NC(=O)[C@H](Cc1ccc(O)cc1)NC(=O)[C@H](CCC(=O)O)NC(=O)[C@H](CCCNC(=N)N)NC(=O)[C@H](CCC(=O)O)NC(=O)[C@H](Cc1c[nH]c2ccccc12)NC(=O)[C@H](CCC(=O)O)NC(=O)[C@H](CCC(N)=O)NC(=O)[C@H](C)NC(C)=O)C(C)C)C(=O)N1CCC[C@H]1C(=O)N[C@@H](Cc1c[nH]cn1)C(=O)NCC(=O)NCC(=O)NCC(=O)N[C@@H](CCCCNC(=O)c1ccc2c(c1)C(=O)OC21c2ccc(O)cc2Oc2cc(O)ccc21)C(N)=O", "note": "[SEQ ID NO: 472]", "values": [{"measurement": "Kd", "setting": "cMet-Fc fusion protein", "result": 2600, "unit": "nM"}, {"measurement": "Kd", "setting": "[1]", "result": 7650, "unit": "nM"}]}]}
